In all, about 310,000 compounds went through this assay and about 2,200 (0.71%) showed an effect of 50% or more. The effect is printed as a negative number. This is one part of the list.
Molecular target: human ether-à-go-go-related gene (hERG) potassium channel (human, UniProt Q12809)
Assay: primary screen, population patch clamp on CHO cells stably expressing hERG

Chain of human ether-à-go-go-related gene (hERG) potassium channel (Q12809 whole entry, looked up): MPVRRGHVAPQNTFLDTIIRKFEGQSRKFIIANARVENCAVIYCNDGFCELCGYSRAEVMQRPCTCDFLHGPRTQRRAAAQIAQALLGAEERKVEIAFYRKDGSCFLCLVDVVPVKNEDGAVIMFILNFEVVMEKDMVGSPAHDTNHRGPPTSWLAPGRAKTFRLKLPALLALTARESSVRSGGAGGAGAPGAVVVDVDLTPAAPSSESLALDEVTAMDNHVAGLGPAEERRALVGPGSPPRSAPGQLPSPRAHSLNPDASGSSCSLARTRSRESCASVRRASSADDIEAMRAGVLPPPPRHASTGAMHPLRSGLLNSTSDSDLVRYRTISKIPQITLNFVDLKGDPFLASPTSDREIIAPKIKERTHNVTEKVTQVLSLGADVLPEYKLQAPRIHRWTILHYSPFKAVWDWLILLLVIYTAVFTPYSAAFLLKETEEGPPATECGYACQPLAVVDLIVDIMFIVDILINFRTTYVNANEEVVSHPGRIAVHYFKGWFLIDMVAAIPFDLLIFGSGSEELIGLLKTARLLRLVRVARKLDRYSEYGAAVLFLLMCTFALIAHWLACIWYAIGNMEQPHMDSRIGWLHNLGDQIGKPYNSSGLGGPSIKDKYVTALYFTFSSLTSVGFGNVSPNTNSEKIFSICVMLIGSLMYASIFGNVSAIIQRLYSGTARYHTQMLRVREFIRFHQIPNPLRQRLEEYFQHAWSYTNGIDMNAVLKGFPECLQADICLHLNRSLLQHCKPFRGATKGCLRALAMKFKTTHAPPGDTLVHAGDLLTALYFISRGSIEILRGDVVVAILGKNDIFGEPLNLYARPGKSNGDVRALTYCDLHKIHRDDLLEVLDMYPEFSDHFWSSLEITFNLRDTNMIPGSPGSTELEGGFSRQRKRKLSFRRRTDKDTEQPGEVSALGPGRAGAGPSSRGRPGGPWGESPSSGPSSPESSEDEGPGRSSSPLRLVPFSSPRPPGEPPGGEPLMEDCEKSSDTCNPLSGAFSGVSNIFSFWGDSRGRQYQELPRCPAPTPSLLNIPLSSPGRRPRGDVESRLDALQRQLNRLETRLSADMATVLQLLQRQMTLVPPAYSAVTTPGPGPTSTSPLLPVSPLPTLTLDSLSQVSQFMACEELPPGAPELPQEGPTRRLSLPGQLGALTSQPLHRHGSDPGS

Going from COc1ccccc1NC(=O)CN1CC(=O)Nc2ccccc21 to O=C(CN1CCN(c2ccccc2F)CC1)Nc1ccccc1F, the “hERG current change (%, negative = inhibition) at 1uM” value falls from 10.7% to 8.33%.

Going from CCS(=O)(=O)NCCc1csc(C)n1 to Cc1ccc2cc(CCNS(=O)(=O)c3ccc(F)cc3)c(=O)[nH]c2c1C, the “hERG current change (%, negative = inhibition) at 1uM” value rises from 1.42% to 13%.

Going from COc1ccc(C(=O)Nc2cccc(C(=O)N3CCN(C)CC3)c2)cc1 to O=C(Nc1ccc2c(c1)OCO2)c1ccc(S(=O)(=O)N2CCCC2)cc1, the “hERG current change (%, negative = inhibition) at 1uM” value rises from 0.0352% to 30.7%.

Going from CCc1nc(N2CCN(C(C)=O)CC2)c2c3c(sc2n1)CC(C(C)(C)C)CC3 (centres unmarked) to CC1=C(C)CC(C(=O)NNC(=O)c2csc3c2CCC(C(C)(C)C)C3)C(C(=O)O)C1 (centres unmarked), the “hERG current change (%, negative = inhibition) at 1uM” value falls from 11.6% to 10.9%.

Going from CN1C(=O)CC(C(=O)O)SC1=Nc1cc(Cl)cc(Cl)c1 (centres unmarked) to Cc1cc(Cl)ccc1NC(=O)CN1C(=O)C(=O)N(C2CCCC2)C1=O, the “hERG current change (%, negative = inhibition) at 1uM” value falls from 11.4% to 3.74%.

First: Cc1cc(N2CCCCCC2)nc(-c2ccccc2O)n1
Second: O=C(CSc1ncccc1-c1nc2ccccc2[nH]1)N1CCCCC1
The “hERG current change (%, negative = inhibition) at 1uM” value of the first is higher: 10.4% for the first, 5.43% for the second.

Compared with CC(=O)Nc1cccc(C(=O)/C=C/c2ccc(N(C)C)cc2)c1, O=C(/C=C/c1ccc(F)cc1)c1ccccc1Br is lower in “hERG current change (%, negative = inhibition) at 1uM” value: 2.38% for the first, 1.99% for the second.

Going from Cc1ccc(S(=O)(=O)Nc2ccc(-n3c(C)nc4ccccc4c3=O)cc2)cc1 to COC(=O)CNC(c1ccccc1)c1cc(Br)ccc1NS(=O)(=O)c1ccc(C)cc1 (centres unmarked), the “hERG current change (%, negative = inhibition) at 1uM” value rises from -7.86% to 5.38%.

Going from COC(=O)CCC(=O)CN.Cl to CCC(SCC(=O)OC)C(=O)Nc1nnc(C(C)C)s1 (centres unmarked), the “hERG current change (%, negative = inhibition) at 1uM” value falls from 11.2% to 10%.

Going from COc1ccccc1Cc1nc(-c2ccc(Br)o2)no1 to COc1ccccc1CNC(=O)CSc1ccc(Br)cc1, the “hERG current change (%, negative = inhibition) at 1uM” value falls from 12.7% to 12.1%.

First: CN(C)/C=N/c1nc2nccc(-c3ccc(Cl)cc3)n2n1
Second: Cc1nccc(-c2ccc(-n3c(C)ccc3C)cc2)n1
The “hERG current change (%, negative = inhibition) at 1uM” value of the first is higher: 16.4% for the first, 8.39% for the second.

Going from CCOc1ccccc1N(C(=O)Nc1ccc(Cl)cc1)C1=NC(C)CS1 (centres unmarked) to O=C(OCC1CC(c2ccccc2)=NO1)c1ccc(Cl)cc1 (centres unmarked), the “hERG current change (%, negative = inhibition) at 1uM” value rises from 10.1% to 10.6%.

Compared with COc1ccc(Cl)cc1N(CC(=O)N1CCCCCC1)S(C)(=O)=O, CCOC(=O)C1=C(CN2CCCCCC2)NC(=O)NC1c1ccc2c(c1)OCO2 (centres unmarked) is lower in “hERG current change (%, negative = inhibition) at 1uM” value: 14% for the first, -2.57% for the second.

First: CC(=O)Nc1c(NC(C)(C)C)c2ccccc2oc1=O
Second: CC(C)(C)Nc1nc(Cl)nc(N(C#N)CN2C(=O)c3ccccc3S2(=O)=O)n1
The “hERG current change (%, negative = inhibition) at 1uM” value of the first is lower: 13.9% for the first, 16.1% for the second.

Compared with COC(=O)c1ccc(/C=N/NC(=O)CC(=O)NC(C)C)cc1, COc1ccc(/C=N/NC(=O)CC(=O)NCc2cccnc2)cc1[N+](=O)[O-] is lower in “hERG current change (%, negative = inhibition) at 1uM” value: 8.28% for the first, -2.1% for the second.

First: Cc1cc(N)n2ncc(-c3cccc(Br)c3)c2n1
Second: Brc1ccc2[nH]ncc2c1
The “hERG current change (%, negative = inhibition) at 1uM” value of the first is lower: 1.71% for the first, 6.72% for the second.

Compared with CCN(CC)CCNCC(=O)Nc1ccc(Oc2ccccc2)cc1, O=C(COC(=O)C1=COCCO1)Nc1ccc(Oc2ccccc2)cc1 is higher in “hERG current change (%, negative = inhibition) at 1uM” value: -21.2% for the first, -2.95% for the second.

First: COC(=O)CSc1nc2ccc(C)cc2[nH]1
Second: Cc1ccc(C)c(NC(=O)c2cc3c([nH]c4ccccc43)c(C)n2)c1
The “hERG current change (%, negative = inhibition) at 1uM” value of the first is higher: 15.8% for the first, 14.7% for the second.

First: Cc1ccccc1C(NC(N)=O)c1ccccc1 (centres unmarked)
Second: O=C(Cc1n[nH]c(=O)c2ccccc12)NC(c1ccccc1)c1ccccc1
The “hERG current change (%, negative = inhibition) at 1uM” value of the first is lower: 0.464% for the first, 4.69% for the second.

First: CCN1CCN(c2cc(C)c3cc(NC(=O)c4cnccn4)ccc3n2)CC1
Second: CCOC(=O)c1cc(S(=O)(=O)N2CCN(Cc3ccccc3)CC2)cn1C
The “hERG current change (%, negative = inhibition) at 1uM” value of the first is lower: -1.78% for the first, 7.46% for the second.

First: COc1ccc(N/C=C\C(=O)c2ccc(Br)cc2)cc1OC
Second: COC(=O)c1ccc(CO/N=C/c2ccc(OC)cc2)o1
The “hERG current change (%, negative = inhibition) at 1uM” value of the first is lower: 5.43% for the first, 7.66% for the second.

Compared with O=C(C1=C[C@H](c2ccccc2)C[C@H](OCCCCO)O1)N1CCOCC1, C=CCOC(=O)C1=C[C@@H](c2coc3ccccc3c2=O)C[C@@H](OCc2ccc(CO)cc2)O1 is higher in “hERG current change (%, negative = inhibition) at 1uM” value: 4.05% for the first, 5.04% for the second.

First: COc1ccccc1OCCSc1nnc(CNC(=O)c2ccco2)n1C
Second: COc1ccccc1C(C)NCC(=O)NC(=O)NCc1ccco1 (centres unmarked)
The “hERG current change (%, negative = inhibition) at 1uM” value of the first is higher: 24.3% for the first, 7.87% for the second.

Compared with COc1ccccc1CNC(=O)Cn1nc(C)c([N+](=O)[O-])c1C, CCOC(=O)N1CCN(C(=O)c2nn(C)c3c2CSc2ccccc2-3)CC1 is lower in “hERG current change (%, negative = inhibition) at 1uM” value: 14% for the first, -10.6% for the second.

First: CCOC(=O)c1ccc(NC(=S)NCc2ccc(S(N)(=O)=O)cc2)cc1
Second: Cc1ccc(CNC(=O)CNS(=O)(=O)c2cccc3nsnc23)cc1
The “hERG current change (%, negative = inhibition) at 1uM” value of the first is higher: 12.1% for the first, 3.84% for the second.

Going from O=C1CN(C(=O)CSc2nnnn2-c2ccc(Cl)cc2)c2ccccc2N1 to O=C(Nc1nnc(Cc2ccc(Cl)cc2)s1)c1cccnc1, the “hERG current change (%, negative = inhibition) at 1uM” value rises from -2.98% to 1.87%.

Going from COc1cc(C)c(C(=O)Oc2cc(C)c(C(=O)O)c(O)c2C)c(O)c1C(=O)O to COc1cc(/C=C2\SC(=Nc3ccc(F)cc3)N(c3ccc(F)cc3)C2=O)ccc1OCC(=O)O, the “hERG current change (%, negative = inhibition) at 1uM” value falls from 14% to 11.5%.

Going from CCOCCn1c(SCc2cccc(C)c2)nc2c1c(=O)[nH]c(=O)n2C to CCCCNC(=O)CC1N=C2c3ccccc3N=C(SCC(=O)Nc3cccc(C)c3)N2C1=O (centres unmarked), the “hERG current change (%, negative = inhibition) at 1uM” value rises from -4.13% to 7.91%.

Going from COc1ccc(-n2c(C)cc(C(=O)C[N+]34CCN(CC3)CC4)c2C)cc1.[Cl-] to Cc1ccc(Cl)c(OCC(=O)N2CCc3ccccc3C2)c1, the “hERG current change (%, negative = inhibition) at 1uM” value rises from 9.07% to 15.5%.

First: O=C(CNC(=O)c1sc2ccccc2c1Cl)NCc1cccnc1
Second: CCOc1ccc(N(C(=O)CNC(=O)c2ccco2)C(C(=O)NC2CCCC2)c2cccnc2)cc1 (centres unmarked)
The “hERG current change (%, negative = inhibition) at 1uM” value of the first is lower: 15% for the first, 16.7% for the second.

Compared with CCOC(=O)c1sc(=S)n(-c2ccccc2Cl)c1SC, CCC(=O)/C=C1\Sc2ccc(OC)cc2N1CC is higher in “hERG current change (%, negative = inhibition) at 1uM” value: -9.44% for the first, 3.49% for the second.

First: CC(C)CN(CC(C)C)S(=O)(=O)N1CCC(C(=O)NCc2ccc3c(c2)OCO3)CC1
Second: Cc1ccc(C(C)C)c(OCc2nnc3n2CCCCC3)c1
The “hERG current change (%, negative = inhibition) at 1uM” value of the first is lower: -8.66% for the first, -0.465% for the second.

Compared with CC(C)(Oc1ccc(Cl)cc1)C(=O)NCC1CCCO1 (centres unmarked), Cc1cccc(OCC(=O)OCC(=O)NCC2CCCO2)c1C (centres unmarked) is higher in “hERG current change (%, negative = inhibition) at 1uM” value: 6.86% for the first, 12.7% for the second.

Compared with Cc1ccc(Cn2cccc2/C=C2/C(=N)N3C=CSC3=NC2=O)cc1, O=C1C(c2ccnc3ccccc23)=C(O)c2ccccc21 is higher in “hERG current change (%, negative = inhibition) at 1uM” value: 8.49% for the first, 11.6% for the second.

Compared with CCc1cccc2c(C(=O)CN3C(=O)C(=O)N(C4CCCC4)C3=O)c[nH]c12, O=C(CSc1c[nH]c2ccccc12)NCC1CCCO1 (centres unmarked) is higher in “hERG current change (%, negative = inhibition) at 1uM” value: 5.44% for the first, 16% for the second.

Going from O=Cc1ccc(Cl)c(Cl)c1 to COCCNCCCOc1ccc(Cl)cc1Br.O=C(O)C(=O)O, the “hERG current change (%, negative = inhibition) at 1uM” value falls from 6.17% to 3.08%.

Compared with Cc1ccccc1NC(=S)N(C)C1(c2ccccc2Cl)CCCCC1=O (centres unmarked), O=C(NC(=S)Nc1cc(C(F)(F)F)ccc1Cl)c1ccccc1 is higher in “hERG current change (%, negative = inhibition) at 1uM” value: 2.84% for the first, 4.35% for the second.

Going from CSc1ccccc1OCc1cc(C(=O)N(C)Cc2cnccn2)no1 to COc1ccc(O)c(C(=O)c2cnn(-c3ccccn3)c2)c1, the “hERG current change (%, negative = inhibition) at 1uM” value falls from 12.1% to -2.68%.

Compared with CSc1ccc(/C=C(/Sc2nnc(-c3ccccc3)o2)C(=O)O)cc1, O=C(NC(Cc1cnc[nH]1)C(=O)O)c1ccccc1 (centres unmarked) is lower in “hERG current change (%, negative = inhibition) at 1uM” value: 15.5% for the first, 7.49% for the second.

Going from O=C(/C=C/c1cccs1)NC1CC1 to CC(C)N(C(=O)CSc1nnc(NC2CC2)s1)c1ccccc1, the “hERG current change (%, negative = inhibition) at 1uM” value falls from 11.7% to -1.07%.

First: CCOC(=O)c1c(NC(=O)CNCC(O)CO)sc(C)c1C (centres unmarked)
Second: C=CCc1cc(C)ccc1OCCCC(C(=O)OCC)C(=O)OCC
The “hERG current change (%, negative = inhibition) at 1uM” value of the first is lower: -3.1% for the first, 8.9% for the second.

Compared with CC1(C)C[C@@H]2C[C@@](C)(CN2C(=O)c2ccccc2)C1, CC1CCN(C(=O)COc2ccc(Nc3ccccc3)cc2)CC1 is higher in “hERG current change (%, negative = inhibition) at 1uM” value: 11.5% for the first, 13.7% for the second.

Going from CC(=O)N/C(=C\c1ccc(F)cc1)C(=O)OC(C)C to CCCNC(=O)c1ccc2c(=O)c(O)c(-c3ccc(F)cc3)[nH]c2c1, the “hERG current change (%, negative = inhibition) at 1uM” value falls from 9.76% to 6.08%.

Compared with CC(C)(C)OC(=O)N[C@@H](COCc1ccccc1)C(=O)N[C@@H](CO)[C@H](O)[C@@H]1C[C@@H]1C(=O)NC1CC1, COC(C[C@@H](O)C[C@H](O)[C@H](C)OCc1ccccc1)OC is higher in “hERG current change (%, negative = inhibition) at 1uM” value: 11.9% for the first, 15.6% for the second.

Compared with COc1cccc2c1C(=O)O/C2=C/c1ccc2c(c1)OCO2, CN1C(=O)CSc2ccc(NC(=O)N3CCc4ccccc43)cc21 is higher in “hERG current change (%, negative = inhibition) at 1uM” value: 5.37% for the first, 6.64% for the second.

First: CCNc1nc(N)nc(Oc2ccc(OCCOc3ccc(Cl)cc3Cl)nn2)n1
Second: COc1ccc(CCn2c(-c3ccccc3)nc3c(c(=O)c4ccccc4n3C)c2=O)cc1
The “hERG current change (%, negative = inhibition) at 1uM” value of the first is lower: 5.99% for the first, 11.3% for the second.

Source: publication PMC4336329 (PLoS ONE, 2015)
